Article PMC8725944, “Design and synthesis of chromone-nitrogen mustard derivatives and evaluation of anti-breast cancer activity” (Journal of Enzyme Inhibition and Medicinal Chemistry, 2021)
pIC50: −log10 of the molar value.

Tested on: human mammary gland tumour cell line MCF-7
Assay: CCK-8 assay, antiproliferative activity against MCF-7
Conditions: MCF7, 72 h, read-out: IC50 MCF-7

pIC50 | SMILES
< 4.70 | Cc1ccc2occ(CO)c(=O)c2c1 [Compound 15]
< 4.70 | COc1ccc2occ(CO)c(=O)c2c1 [Compound 16]
< 4.70 | Cc1ccc2occ(CN)c(=O)c2c1 [Compound 19]
< 4.70 | COc1ccc2occ(CN)c(=O)c2c1 [Compound 20]
